In the supplement of paper PMC8728848:
The list shows a part of the results.

Tests used:
Test in all cases: glycan array binding signal (z-score within array); higher = stronger binding
Conditions in all cases: glycan notation: IUPAC condensed, linker removed
[1] = biological target: GlcNAc(a1-4)Gal(b1-3)GlcNAc
How it was run: (§1)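 Negative Z-scores can be read as non-binding. The Z-score is calculated within each array and then averaged across arrays of one protein sequence at different concentrations or buffers and across linkers. Arrays, 3228 in all, were curated from the Consortium for Functional Glycomics database and kept only where the protein sequence was available.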

[2] = biological target: GlcNAc(a1-4)Gal(b1-4)GalNAc
How it was run: as §1

[3] = biological target: GlcNAc(a1-4)Gal(b1-4)GlcNAc
How it was run: as §1

[4] = biological target: GlcNAc(a1-4)Gal(b1-4)GlcNAc(b1-3)Gal(b1-4)Glc
How it was run: as §1

[5] = biological target: GlcNAc(a1-4)Gal(b1-4)GlcNAc(b1-3)Gal(b1-4)GlcNAc
How it was run: as §1

[6] = biological target: GlcNAc(a1-4)Gal(b1-4)GlcNAc(b1-3)Gal(b1-4)GlcNAc(b1-3)Gal(b1-4)GlcNAc
How it was run: as §1

[7] = biological target: GlcNAc(a1-4)Gal(b1-4)GlcNAc(b1-3)Gal(b1-4)[Fuc(a1-3)]GlcNAc(b1-3)Gal(b1-4)[Fuc(a1-3)]GlcNAc
How it was run: as §1

[8] = biological target: GlcNAc(a1-6)Gal(b1-4)GlcNAc
How it was run: as §1

[9] = biological target: GlcNAc(b1-2)Gal(b1-3)GalNAc
How it was run: as §1

[10] = biological target: GlcNAc(b1-2)Man(a1-3)[GlcNAc(b1-2)Man(a1-6)]Man(b1-4)GlcNAc(b1-4)GlcNAc
How it was run: as §1

[11] = biological target: GlcNAc(b1-2)Man(a1-3)[GlcNAc(b1-2)Man(a1-6)]Man(b1-4)GlcNAc(b1-4)[Fuc(a1-6)]GlcNAc
How it was run: as §1

[12] = biological target: GlcNAc(b1-2)Man(a1-3)[GlcNAc(b1-4)][GlcNAc(b1-2)Man(a1-6)]Man(b1-4)GlcNAc(b1-4)GlcNAc
How it was run: as §1

[13] = biological target: GlcNAc(b1-2)Man(a1-3)[GlcNAc(b1-4)][GlcNAc(b1-2)Man(a1-6)]Man(b1-4)GlcNAc(b1-4)[Fuc(a1-6)]GlcNAc
How it was run: as §1

[14] = biological target: GlcNAc(b1-2)[GlcNAc(b1-4)]Man(a1-3)[GlcNAc(b1-2)Man(a1-6)]Man(b1-4)GlcNAc(b1-4)GlcNAc
How it was run: as §1

[15] = biological target: GlcNAc(b1-2)[GlcNAc(b1-4)]Man(a1-3)[GlcNAc(b1-4)][GlcNAc(b1-2)Man(a1-6)]Man(b1-4)GlcNAc(b1-4)GlcNAc
How it was run: as §1

[16] = biological target: GlcNAc(b1-2)[GlcNAc(b1-4)]Man(a1-3)[GlcNAc(b1-4)][GlcNAc(b1-2)[GlcNAc(b1-6)]Man(a1-6)]Man(b1-4)GlcNAc(b1-4)GlcNAc
How it was run: as §1

[17] = biological target: GlcNAc(b1-2)[GlcNAc(b1-4)]Man(a1-3)[GlcNAc(b1-4)][GlcNAc(b1-2)[GlcNAc(b1-6)]Man(a1-6)]Man(b1-4)GlcNAc(b1-4)[Fuc(a1-6)]GlcNAc
How it was run: as §1

[18] = biological target: GlcNAc(b1-2)[GlcNAc(b1-6)]Man(a1-6)[GlcNAc(b1-2)Man(a1-3)]Man(b1-4)GlcNAc(b1-4)GlcNAc
How it was run: as §1

[19] = biological target: GlcNAc(b1-2)[GlcNAc(b1-6)]Man(a1-6)[GlcNAc(b1-2)Man(a1-3)]Man(b1-4)GlcNAc(b1-4)[Fuc(a1-6)]GlcNAc
How it was run: as §1

[20] = biological target: GlcNAc(b1-2)[GlcNAc(b1-6)]Man(a1-6)[GlcNAc(b1-4)][GlcNAc(b1-2)Man(a1-3)]Man(b1-4)GlcNAc(b1-4)GlcNAc
How it was run: as §1

[21] = biological target: GlcNAc(b1-3)Fuc
How it was run: as §1

[22] = biological target: GlcNAc(b1-3)Gal
How it was run: as §1

[23] = biological target: GlcNAc(b1-3)Gal(b1-3)GalNAc
How it was run: as §1

[24] = biological target: GlcNAc(b1-3)Gal(b1-4)Glc
How it was run: as §1

[25] = biological target: GlcNAc(b1-3)Gal(b1-4)GlcNAc
How it was run: as §1

[26] = biological target: GlcNAc(b1-3)Gal(b1-4)GlcNAc(b1-2)Man(a1-3)[GlcNAc(b1-3)Gal(b1-4)GlcNAc(b1-2)Man(a1-6)]Man(b1-4)GlcNAc(b1-4)GlcNAc
How it was run: as §1

[27] = biological target: GlcNAc(b1-3)Gal(b1-4)GlcNAc(b1-2)Man(a1-3)[GlcNAc(b1-3)Gal(b1-4)GlcNAc(b1-2)Man(a1-6)]Man(b1-4)GlcNAc(b1-4)[Fuc(a1-6)]GlcNAc
How it was run: as §1

[28] = biological target: GlcNAc(b1-3)Gal(b1-4)GlcNAc(b1-2)[GlcNAc(b1-3)Gal(b1-4)GlcNAc(b1-6)]Man(a1-6)[GlcNAc(b1-3)Gal(b1-4)GlcNAc(b1-2)Man(a1-3)]Man(b1-4)GlcNAc(b1-4)GlcNAc
How it was run: as §1

[29] = biological target: GlcNAc(b1-3)Gal(b1-4)GlcNAc(b1-3)Gal(b1-4)GlcNAc
How it was run: as §1

[30] = biological target: GlcNAc(b1-3)Gal(b1-4)GlcNAc(b1-3)Gal(b1-4)GlcNAc(b1-2)Man(a1-3)[GlcNAc(b1-3)Gal(b1-4)GlcNAc(b1-3)Gal(b1-4)GlcNAc(b1-2)Man(a1-6)]Man(b1-4)GlcNAc(b1-4)GlcNAc
How it was run: as §1

[31] = biological target: GlcNAc(b1-3)Gal(b1-4)GlcNAc(b1-3)Gal(b1-4)GlcNAc(b1-2)Man(a1-3)[GlcNAc(b1-3)Gal(b1-4)GlcNAc(b1-3)Gal(b1-4)GlcNAc(b1-2)Man(a1-6)]Man(b1-4)GlcNAc(b1-4)[Fuc(a1-6)]GlcNAc
How it was run: as §1

[32] = biological target: GlcNAc(b1-3)Gal(b1-4)GlcNAc(b1-3)Gal(b1-4)GlcNAc(b1-2)[GlcNAc(b1-3)Gal(b1-4)GlcNAc(b1-3)Gal(b1-4)GlcNAc(b1-6)]Man(a1-6)[GlcNAc(b1-3)Gal(b1-4)GlcNAc(b1-3)Gal(b1-4)GlcNAc(b1-2)Man(a1-3)]Man(b1-4)GlcNAc(b1-4)[Fuc(a1-6)]GlcNAc
How it was run: as §1

[33] = biological target: GlcNAc(b1-3)Gal(b1-4)GlcNAc(b1-3)Gal(b1-4)GlcNAc(b1-3)Gal(b1-4)GlcNAc(b1-2)Man(a1-3)[GlcNAc(b1-3)Gal(b1-4)GlcNAc(b1-3)Gal(b1-4)GlcNAc(b1-3)Gal(b1-4)GlcNAc(b1-2)Man(a1-6)]Man(b1-4)GlcNAc(b1-4)GlcNAc
How it was run: as §1

[34] = biological target: GlcNAc(b1-3)Gal(b1-4)GlcNAc(b1-3)Gal(b1-4)GlcNAc(b1-3)Gal(b1-4)GlcNAc(b1-2)Man(a1-3)[GlcNAc(b1-3)Gal(b1-4)GlcNAc(b1-3)Gal(b1-4)GlcNAc(b1-3)Gal(b1-4)GlcNAc(b1-2)Man(a1-6)]Man(b1-4)GlcNAc(b1-4)[Fuc(a1-6)]GlcNAc
How it was run: as §1

[35] = biological target: GlcNAc(b1-3)Gal(b1-4)GlcNAc(b1-3)Gal(b1-4)GlcNAc(b1-3)Gal(b1-4)GlcNAc(b1-2)[GlcNAc(b1-3)Gal(b1-4)GlcNAc(b1-3)Gal(b1-4)GlcNAc(b1-3)Gal(b1-4)GlcNAc(b1-6)]Man(a1-6)[GlcNAc(b1-3)Gal(b1-4)GlcNAc(b1-3)Gal(b1-4)GlcNAc(b1-3)Gal(b1-4)GlcNAc(b1-2)Man(a1-3)]Man(b1-4)GlcNAc(b1-4)[Fuc(a1-6)]GlcNAc
How it was run: as §1

[36] = biological target: GlcNAc(b1-3)Gal(b1-4)GlcNAc(b1-3)Gal(b1-4)GlcNAc(b1-3)Gal(b1-4)GlcNAc(b1-3)Gal(b1-4)GlcNAc(b1-2)Man(a1-3)[GlcNAc(b1-3)Gal(b1-4)GlcNAc(b1-3)Gal(b1-4)GlcNAc(b1-3)Gal(b1-4)GlcNAc(b1-3)Gal(b1-4)GlcNAc(b1-2)Man(a1-6)]Man(b1-4)GlcNAc(b1-4)GlcNAc
How it was run: as §1

[37] = biological target: GlcNAc(b1-3)Gal(b1-4)GlcNAc(b1-3)Gal(b1-4)GlcNAc(b1-3)Gal(b1-4)GlcNAc(b1-3)Gal(b1-4)GlcNAc(b1-2)Man(a1-3)[GlcNAc(b1-3)Gal(b1-4)GlcNAc(b1-3)Gal(b1-4)GlcNAc(b1-3)Gal(b1-4)GlcNAc(b1-3)Gal(b1-4)GlcNAc(b1-2)Man(a1-6)]Man(b1-4)GlcNAc(b1-4)[Fuc(a1-6)]GlcNAc
How it was run: as §1

[38] = biological target: GlcNAc(b1-3)Gal(b1-4)GlcNAc(b1-3)Gal(b1-4)GlcNAc(b1-3)Gal(b1-4)GlcNAc(b1-3)Gal(b1-4)GlcNAc(b1-2)[GlcNAc(b1-3)Gal(b1-4)GlcNAc(b1-3)Gal(b1-4)GlcNAc(b1-3)Gal(b1-4)GlcNAc(b1-3)Gal(b1-4)GlcNAc(b1-6)]Man(a1-6)[GlcNAc(b1-3)Gal(b1-4)GlcNAc(b1-3)Gal(b1-4)GlcNAc(b1-3)Gal(b1-4)GlcNAc(b1-3)Gal(b1-4)GlcNAc(b1-2)Man(a1-3)]Man(b1-4)GlcNAc(b1-4)[Fuc(a1-6)]GlcNAc
How it was run: as §1

[39] = biological target: GlcNAc(b1-3)Gal(b1-4)GlcNAc(b1-3)Gal(b1-4)GlcNAc(b1-3)GalNAc
How it was run: as §1

[40] = biological target: GlcNAc(b1-3)Gal(b1-4)GlcNAc(b1-3)GalNAc
How it was run: as §1

[41] = biological target: GlcNAc(b1-3)Gal(b1-4)GlcNAc(b1-3)[GlcNAc(b1-3)Gal(b1-4)GlcNAc(b1-3)]GalNAc
How it was run: as §1

[42] = biological target: GlcNAc(b1-3)Gal(b1-4)GlcNAc(b1-6)[Gal(b1-3)]GalNAc
How it was run: as §1

[43] = biological target: GlcNAc(b1-3)Gal(b1-4)GlcNAc(b1-6)[GlcNAc(b1-3)Gal(b1-3)]GalNAc
How it was run: as §1

[44] = biological target: GlcNAc(b1-3)Gal(b1-4)GlcNAc(b1-6)[GlcNAc(b1-3)]Gal(b1-4)GlcNAc
How it was run: as §1

[45] = biological target: GlcNAc(b1-3)GalNAc
How it was run: as §1

B1: ECA (Erythrina cristagalli), P83410 (protein)
chain: VETISFSFSEFEPGNDNLTLQGAALITQSGVLQLTKINQNGMPAWDSTGRTLYTKPVHMWDSTTGTVASFETRFSFSIEQPYTRPLPADGLVFFMGPTKSKPAQGYGYLGVFNNSKQDNSYQTLAVEFDTFSNPWDPPQVPHIGIDVNSIRSIKTQPFQLDNGQVANVVIKYDAPSKILHVVLVYPSSGAIYTIAEIVDVKQVLPDWVDVGLSGATGAQRDAAETHDVYSWSFQASLPE
- glycan array binding signal (z-score) [1]: -0.187
- glycan array binding signal (z-score) [2]: -0.282
- glycan array binding signal (z-score) [3]: -0.365
- glycan array binding signal (z-score) [4]: -0.16
- glycan array binding signal (z-score) [5]: -0.344
- glycan array binding signal (z-score) [6]: -0.476
- glycan array binding signal (z-score) [7]: 0.036
- glycan array binding signal (z-score) [8]: -0.344
- glycan array binding signal (z-score) [9]: -0.226
- glycan array binding signal (z-score) [10]: -0.242
- glycan array binding signal (z-score) [11]: 0.103
- glycan array binding signal (z-score) [12]: -0.636
- glycan array binding signal (z-score) [13]: -0.49
- glycan array binding signal (z-score) [14]: -0.027
- glycan array binding signal (z-score) [15]: -0.374
- glycan array binding signal (z-score) [16]: -0.605
- glycan array binding signal (z-score) [17]: -0.18
- glycan array binding signal (z-score) [18]: 0.328
- glycan array binding signal (z-score) [19]: -0.207
- glycan array binding signal (z-score) [20]: -0.483
- glycan array binding signal (z-score) [21]: -0.493
- glycan array binding signal (z-score) [22]: -0.199
- glycan array binding signal (z-score) [23]: -0.287
- glycan array binding signal (z-score) [24]: -0.286
- glycan array binding signal (z-score) [25]: -0.272
- glycan array binding signal (z-score) [26]: -0.329
- glycan array binding signal (z-score) [27]: -0.112
- glycan array binding signal (z-score) [28]: -0.269
- glycan array binding signal (z-score) [29]: -0.254
- glycan array binding signal (z-score) [30]: 3.72
- glycan array binding signal (z-score) [31]: 0.46
- glycan array binding signal (z-score) [32]: 3.4
- glycan array binding signal (z-score) [33]: 0.782
- glycan array binding signal (z-score) [34]: 1.03
- glycan array binding signal (z-score) [35]: 2.63
- glycan array binding signal (z-score) [36]: 0.245
- glycan array binding signal (z-score) [37]: 0.151
- glycan array binding signal (z-score) [38]: 3.16
- glycan array binding signal (z-score) [39]: -0.339
- glycan array binding signal (z-score) [40]: -0.407
- glycan array binding signal (z-score) [41]: 1.12
- glycan array binding signal (z-score) [42]: -0.412
- glycan array binding signal (z-score) [43]: -0.377
- glycan array binding signal (z-score) [44]: -0.53
- glycan array binding signal (z-score) [45]: -0.366
